We go through 44 sequences from the supplement of paper PMC11417369.

This is one part of the list.

The subject of this assay is PfSIP2 AP2 domain 1 (GST-tagged). The experiment in a line: gcPBM binding intensity (ln(normalized median fluorescence intensity)); higher = stronger DNA binding. The essentials: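 For binding intensity, the highest Masliner-normalised natural-log median intensity across replicate spots of either probe orientation was taken. Protein bound to the array was stained with Alexa488 anti-GST antibody and scanned at 488 nm. The protein, GST-tagged P. falciparum DNA-binding domains from E. coli at about 25 μg on average, had been applied for 1 h to an Agilent 4 × 180k array of primer-extended double-stranded 36-bp intergenic genomic probes and negative controls.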
For “AAATGCTAAAAATAGAGTACAGATAACGAAAAGTGT [XGTACX_site8830]”, the “gcPBM binding intensity (ln)” value came to 7.53.
Turning to “AAGGAGAAATAAATATTAAAAAATTTATATATATAT [CACACA_negctrl_site1801]”, the “gcPBM binding intensity (ln)” value came to 9.06.
With “TAATATTGCAAATATAAAAAAAAATAAACCATATAT [XGTACX_negctrl_site458]” the figure was 7.18.
The result for “TTCTTTTTTAACAACAAAAAAAAAAAAAAAAAAAAA [TGCATGCA_negctrl_site87]” reads 7.04; that for “TTTTTTGCTTTCAACACACATACAATCTATATAATC [CACACA_site4125]”, 7.21.
With “TAAACCTGTAGAGATGCATGCATTGTTAACATGGTG [TGCATGCA_site515]” the figure was 6.85.
As for “AAATTATAAATAATTTGTACATAAAAATTGGTAAAG [XGTACX_site5197]”, the “gcPBM binding intensity (ln)” value was 7.13.
The result for “ACATGTGAAGGGAACATAAATTGGGGTTTTATATTG [XGTACX_negctrl_site508]” reads 6.99.
The result for “GAATATAAAAAAGAATGTACTTGAACAGTCCTAAAA [XGTACX_site745]” reads 6.46; that for “TTTTTTATATTAAATGAAGAATATACAAAATTTTAA [CACACA_negctrl_site558]”, 6.92; that for “TTTTGTTAGTTTTTTTTCTTATATTACATTTTCACG [CACACA_negctrl_site1466]”, 6.82.
As for “ATGTAGTCTCAAGACTGTACAAACAAGTAAATAAAA [XGTACX_site4120]”, the “gcPBM binding intensity (ln)” value turned out to be 6.74.
As for ACAATTTTATTTAAAGTGCATGTAAAATTAAAACTT, the “gcPBM binding intensity (ln)” value came to 9.79.
The result for “TATACATTTATGTACACACACATATATGTATATTTA [CACACA_site2966]” reads 6.84; that for “AATAAATATCAATACACACACACAAAAGTGAATAAA [CACACA_site3763]”, 6.99; that for “AAAGGAAGAAAAAATAGTACATATATATATATATAA [XGTACX_site766]”, 7.36.
The result for “TCCATCCACATATATGTACACACATATATATATATA [CACACA_site8970]” reads 9.43; that for “GTTAAGGGTATATATACACACATATGTAATACATGA [CACACA_site5650]”, 6.98; that for “AAAATTTCAATAAATACACACATATATATATATATT [CACACA_site1685]”, 7.07.
With “AAATAATATATGAATGCACACAGTAAAAATTAAAGA [CACACA_site2252]” the figure was 8.05.
Consider “AAGATTAATATTTTATGTACATATGTAATATATATG [XGTACX_site4367]”, for which the “gcPBM binding intensity (ln)” value was found to be 7.
As to “ATATTTTTATGATGTATCCAAGAAATGGAACTATAT [CACACA_negctrl_site1268]”, the “gcPBM binding intensity (ln)” value is 6.86.
The result for “AAGAATACACCACGCACACACACTTGAGAAAAAATA [CACACA_site3828]” reads 7.3.
With “ATATATACCTAAGACACACACATATAGATTTATATA [CACACA_site6498]” the figure was 7.11.
The result for “TTCTTTGTGGTATAGATACACACTATATTAATATGA [CACACA_site2150]” reads 7.17.
As for “ATTTTAGATATCCTGCGTACACAAATTGCTTTATTT [XGTACX_site7149]”, the “gcPBM binding intensity (ln)” value was 7.16.
With TATCTTATTTTAAAAGTGCATGGAAAGGGGTTTTTG the figure was 7.73.
In the case of “TGTATAAGTGCCGTTATACACACGTTATATAAATAT [CACACA_site438]”, the “gcPBM binding intensity (ln)” value was found to be 7.07.
The result for “ATAAATTTATATACTTGTACATATATATATTACATA [XGTACX_site6697]” reads 7.19; that for “TATATATACATATACACACACACACCCATATATATA [CACACA_site2246]”, 7.49; that for “TTTGAAATAAAAAGGTGTACACTCGATTAATAAATA [XGTACX_site6943]”, 7.38.
With “ACTATCATTTTTTTAACACACAAAAAAAATAAAATA [CACACA_site3519]” the figure was 7.33; with “TTTTAGCACTTATTATAAGATATCAAAAAGATGGGT [XGTACX_negctrl_site325]”, 7.32; with “TTATAAAAATAATATCGTACAAATGATAAAGATTAA [XGTACX_site4893]”, 6.77.
With “TGAATTCGTCAAAAGCGTACATATAATATCTTCTTG [XGTACX_site8842]” the figure was 6.99.
Turning to “ACATATATATATATATATAATATTTTATATTTATTA [CACACA_negctrl_site713]”, the “gcPBM binding intensity (ln)” value stood at 7.49.
With “ATATTTTTTTATAAATGTACAAAAATAATATTGCAT [XGTACX_site7399]” the figure was 7.02; with “CCATTTACCCTTGCCATGCACACTTTTTTATAGAAA [CACACA_site3505]”, 7.68.
With “AAAATAATGTTTATATGTACATATATATATATATAT [XGTACX_site8815]” the figure was 9.05; with “TATATAGTAATATATACACACACTTGTCTTGTAAAA [CACACA_site990]”, 6.9; with “TTTTTATTTAATATTTTAAAAAAAAATCATTTTTAA [XGTACX_negctrl_site207]”, 6.49.
With “TCATTTTATTATTCTACACACTTATCTATAATTACA [CACACA_site6168]” the figure was 7.29.
Take TTACATGTACAAAAGTTGCACTTCATACACTTTTAT: the “gcPBM binding intensity (ln)” value worked out at 8.16.
Consider “ATTCTATATATGTGCACACAAAAGATATATATATAT [CACACA_site2124]”, for which the “gcPBM binding intensity (ln)” value was 9.79.
